Out of some 310,000 compounds screened, about 14,000 (4.5%) showed an effect of 50% or more. The effect is printed as a negative number. The list shows a part of the results.
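Note: peak tail current of the secondary pulse compared with the same well before compound.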

The target in this assay is human ether-à-go-go-related gene (hERG) potassium channel (human, UniProt Q12809). Put plainly: primary screen, population patch clamp on CHO cells stably expressing hERG.
Chain of human ether-à-go-go-related gene (hERG) potassium channel (Q12809 whole entry, looked up): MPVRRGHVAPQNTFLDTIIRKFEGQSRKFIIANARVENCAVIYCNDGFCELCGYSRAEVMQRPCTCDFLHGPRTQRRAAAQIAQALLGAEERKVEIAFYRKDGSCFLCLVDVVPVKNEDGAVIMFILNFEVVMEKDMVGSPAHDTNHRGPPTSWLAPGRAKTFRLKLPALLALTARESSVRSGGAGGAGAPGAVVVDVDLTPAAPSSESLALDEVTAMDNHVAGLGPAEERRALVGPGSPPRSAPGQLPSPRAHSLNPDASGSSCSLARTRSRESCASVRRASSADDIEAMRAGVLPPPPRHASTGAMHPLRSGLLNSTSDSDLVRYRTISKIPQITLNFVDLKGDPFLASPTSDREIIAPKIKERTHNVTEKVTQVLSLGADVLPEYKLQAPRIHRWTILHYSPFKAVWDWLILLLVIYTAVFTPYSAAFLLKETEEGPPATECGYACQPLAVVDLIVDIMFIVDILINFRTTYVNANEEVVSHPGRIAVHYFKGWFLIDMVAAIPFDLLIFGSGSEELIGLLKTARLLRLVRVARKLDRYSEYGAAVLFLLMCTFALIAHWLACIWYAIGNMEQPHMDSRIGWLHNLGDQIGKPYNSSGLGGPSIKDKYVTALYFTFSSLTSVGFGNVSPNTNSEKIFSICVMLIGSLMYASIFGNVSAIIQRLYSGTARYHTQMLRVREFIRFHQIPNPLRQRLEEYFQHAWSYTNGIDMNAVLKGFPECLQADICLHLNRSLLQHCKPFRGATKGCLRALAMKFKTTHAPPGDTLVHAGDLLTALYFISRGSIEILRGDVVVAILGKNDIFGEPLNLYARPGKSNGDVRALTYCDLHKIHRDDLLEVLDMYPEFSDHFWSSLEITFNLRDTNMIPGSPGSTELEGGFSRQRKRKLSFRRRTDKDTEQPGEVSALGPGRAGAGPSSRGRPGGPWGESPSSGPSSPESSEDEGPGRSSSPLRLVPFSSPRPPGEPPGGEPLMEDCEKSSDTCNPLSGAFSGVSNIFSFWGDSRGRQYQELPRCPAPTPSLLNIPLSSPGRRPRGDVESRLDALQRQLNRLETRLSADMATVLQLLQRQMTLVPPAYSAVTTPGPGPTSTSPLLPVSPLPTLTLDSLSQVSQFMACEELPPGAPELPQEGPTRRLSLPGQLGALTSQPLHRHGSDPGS
In the case of `COc1ccc(CCNC(=O)CCC(=O)N2CC(C)Oc3ccc(Cl)cc32)cc1OC` (centres unmarked), the “hERG current change (%, negative = inhibition) at 10uM” value is on record as -19.2%.

As to `CSCCC(NC(=O)c1cccc([N+](=O)[O-])c1)c1nc2ccccc2[nH]1` (centres unmarked), the “hERG current change (%, negative = inhibition) at 10uM” value is recorded as -49.3%.

Take `CC(=O)c1ccc(N2C(=O)NC3(CCCCC3)C2=O)cc1`: the “hERG current change (%, negative = inhibition) at 10uM” value is -3.51%.

As to `O=C1NC(=O)C2(Cc3ccccc3N3CCCC32)C(=O)N1` (centres unmarked), the “hERG current change (%, negative = inhibition) at 10uM” value is 1.45%.

Consider `COC(=O)[C@H]1C[C@@H]1[C@H](NP(=O)(c1ccccc1)c1ccccc1)c1ccccc1`, for which the “hERG current change (%, negative = inhibition) at 10uM” value is -0.634%.

Turning to `c1ccc2[nH]c(NCCN3CCOCC3)nc2c1`, the “hERG current change (%, negative = inhibition) at 10uM” value was 10.9%.

Consider `CCCn1c(C)cc(/C=C(\C#N)C(=O)OCC(=O)Nc2cccc(OC)c2)c1C`, for which the “hERG current change (%, negative = inhibition) at 10uM” value is recorded as 6.27%.

For the compound `CCCCOC(=O)CSc1nnc(-c2cc(OC)c(OC)c(OC)c2)o1`, the “hERG current change (%, negative = inhibition) at 10uM” value is on record as -11.9%.

`CCc1noc(C)c1C(=O)Oc1ccc(N(C)S(=O)(=O)c2ccc(C)cc2)cc1`: the “hERG current change (%, negative = inhibition) at 10uM” value is on record as -18.4%.

As for `CN(C(=O)c1ccc(F)c(S(=O)(=O)N2CCOCC2)c1)C1CCCCC1`, the “hERG current change (%, negative = inhibition) at 10uM” value is reported as 4.46%.

Take `COc1ccc(C2C(C(=O)Nc3cccc(C)n3)CCC(=O)N2c2ccc(OC)cc2)cc1` (centres unmarked): the “hERG current change (%, negative = inhibition) at 10uM” value was -16.4%.

Regarding `COc1ccc(NC(=O)COC(=O)C23CC4CC(CC(Cl)(C4)C2)C3)c(OC)c1`, the “hERG current change (%, negative = inhibition) at 10uM” value came out at 10.4%.

With `CN(c1ccc(C(=O)N2CCN(Cc3ccc4c(c3)OCO4)CC2)cc1)S(C)(=O)=O`, the “hERG current change (%, negative = inhibition) at 10uM” value is listed as -3.82%.

In the case of `CNc1nc(N)nc(OC(C(F)(F)F)C(F)(F)F)n1`, the “hERG current change (%, negative = inhibition) at 10uM” value is -18.1%.

In the case of `O=C(/C=C/c1ccc(Br)o1)Nc1nnc(C2CC2)s1`, the “hERG current change (%, negative = inhibition) at 10uM” value is recorded as -4.06%.

As for `CCCn1c2c(c(=N)c3c1CCC3)CCC2.I`, the “hERG current change (%, negative = inhibition) at 10uM” value worked out at 7.05%.

Regarding `Nc1nc2c(s1)CCc1c-2cnn1-c1ccccc1`, the “hERG current change (%, negative = inhibition) at 10uM” value stood at 7.41%.

For the compound `S=c1[nH]nc(C2CCCCC2)o1`, the “hERG current change (%, negative = inhibition) at 10uM” value is 11.7%.

As to `CN(Cc1cccc(F)c1)C(=O)c1ccc2c(=O)n3c(nc2c1)CCC3`, the “hERG current change (%, negative = inhibition) at 10uM” value stood at 7.35%.

Turning to `COc1ccc(C2C(=O)c3ccccc3C2=Nc2ccc(Br)cc2)cc1` (centres unmarked), the “hERG current change (%, negative = inhibition) at 10uM” value is reported as 18%.

On to `CCOc1ccccc1NC(=O)Nc1c(C)n(-c2ccccc2)c(=O)n1C`, for which the “hERG current change (%, negative = inhibition) at 10uM” value worked out at 0.0552%.

For `CN1C(=O)CSc2ccc(NC(=O)N3CCN(c4ccccc4)CC3)cc21`, the “hERG current change (%, negative = inhibition) at 10uM” value is given as -25.3%.

Regarding `O=C(N/N=C/c1ccc(OC(F)F)cc1)c1cc[n+]([O-])cc1`, the “hERG current change (%, negative = inhibition) at 10uM” value is 7.4%.

With `CCOc1ccc(NC(=O)CCS(=O)(=O)c2cccc3nsnc23)cc1`, the “hERG current change (%, negative = inhibition) at 10uM” value was -7.64%.

Consider `C/C(=N\NC(=O)c1ccc(O)cc1)c1ccc(N2CCOCC2)cc1`, for which the “hERG current change (%, negative = inhibition) at 10uM” value is listed as 4.69%.

Turning to `CCOC(=O)c1sc2nc3n(c(=O)c2c1C)CCC(C)CC3` (centres unmarked), the “hERG current change (%, negative = inhibition) at 10uM” value was -9.1%.

In the case of `Cc1ccc(N2CC(C(=O)Nc3nnc(SCC(=O)NCC4CCCO4)s3)CC2=O)cc1` (centres unmarked), the “hERG current change (%, negative = inhibition) at 10uM” value worked out at 11%.

In the case of `Cc1cc(C(=O)N/N=C/c2cccn2C)no1`, the “hERG current change (%, negative = inhibition) at 10uM” value came out at 1.69%.

As to `O=C(NCC(c1ccco1)N1CCOCC1)c1c(F)cccc1F` (centres unmarked), the “hERG current change (%, negative = inhibition) at 10uM” value is -2.75%.

Turning to `CCc1ccc(C(C)NC(=S)NC2CCCCC2)cc1` (centres unmarked), the “hERG current change (%, negative = inhibition) at 10uM” value came out at 8.85%.

With `Cc1cc(C(=O)Nc2ccccc2)c(C)o1`, the “hERG current change (%, negative = inhibition) at 10uM” value is listed as 5.89%.

For the compound `Cc1ccc(Cn2ncc(Cl)c(Cl)c2=O)cc1`, the “hERG current change (%, negative = inhibition) at 10uM” value is given as -0.0595%.

For the compound `NC(=O)c1nsc(C(=O)N(c2cccc(F)c2)C(C(=O)NC2CCCC2)c2ccco2)c1N` (centres unmarked), the “hERG current change (%, negative = inhibition) at 10uM” value is 4.94%.

Consider `Cc1ccc(S(=O)(=O)N(Cc2n[nH]c(=S)n2-c2ccccc2)c2cccc(Cl)c2)cc1`, for which the “hERG current change (%, negative = inhibition) at 10uM” value is recorded as -4.59%.

As for `CC(=O)Nc1ccc(S(=O)(=O)Nc2nc3ccccc3nc2N2CCCCCC2)cc1`, the “hERG current change (%, negative = inhibition) at 10uM” value is given as -8.36%.

Turning to `CC(NCc1ccco1)C(=O)N1CCc2ccccc2C1.Cl` (centres unmarked), the “hERG current change (%, negative = inhibition) at 10uM” value amounted to 14%.

Turning to `C=CCOC(=O)C1=C(C)Nc2nc3ccccc3n2C1c1ccncc1` (centres unmarked), the “hERG current change (%, negative = inhibition) at 10uM” value is given as -2.4%.

Take `CC(=NCCN1CCN(C(C)=C2C(=O)c3ccccc3C2=O)CC1)C1=C(O)CC(C)(C)CC1=O`: the “hERG current change (%, negative = inhibition) at 10uM” value was -50.5%.

For `CN(C)S(=O)(=O)c1ccc(C(=O)OCC(=O)NCc2ccco2)cc1`, the “hERG current change (%, negative = inhibition) at 10uM” value turned out to be 11.6%.

As to `CCNC(=O)CN(c1ccccc1OC)S(=O)(=O)c1cccs1`, the “hERG current change (%, negative = inhibition) at 10uM” value is listed as -5.25%.

With `CCOc1ccccc1NC1c2ccccc2C(=O)N1Cc1ccco1` (centres unmarked), the “hERG current change (%, negative = inhibition) at 10uM” value is -24.6%.

Regarding `CC1CCN(S(=O)(=O)N2CCCC(C(=O)NCc3ccc(F)cc3)C2)CC1` (centres unmarked), the “hERG current change (%, negative = inhibition) at 10uM” value was -3.29%.

On to `CCc1cc2c(=O)n(-c3ccccc3)c(SCC(=O)O)nc2s1`, for which the “hERG current change (%, negative = inhibition) at 10uM” value is listed as 17.6%.

With `Cc1ccc(C(=O)Cn2c(C(=O)O)cc3ccccc32)cc1`, the “hERG current change (%, negative = inhibition) at 10uM” value is reported as 6.92%.

For the origin of these results see publication PMC4336329 (PLoS ONE, 2015).
